The values below come from PubChem BioAssay AID1963576 (National Center for Advancing Translational Sciences (NCATS), 2024).

Hit rate of the full screen: of about 46,000 compounds, about 60 (0.1%) were called active. Roughly 3% stayed inconclusive and do not appear here. Calls follow the shape of the dose curve; as a rule, active = well fitted inhibition curve with a large enough effect; inconclusive = small, poorly fitted or top-dose-only effect; inactive = no such curve, though single readings can be large or run the other way. The list shows a part of the results. Non-standard residues stand in square brackets, D forms with d. Residues, ends and D or L forms follow the SMILES beside them. *: point of attachment. Sta = CC(C)C[C@H](N)[C@@H](O)CC(=O)O; Isovaleryl = CC(C)CC(=O)*

The nature of this test: Primary qHTS assay for Inhibitors of ovarian cancer metastasis using an organotypic tumor microenvironment (TME) model. Also: nearly all actives have a fitted effect of over 65% in size.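 As to activity change, negative = inhibition: plate controls were DMSO wells for no effect and tomatine positive control wells for full effect.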 Conditions: SKOV3ip1-GFP adhesion/invasion on 3D omental model, fluorescence; series mostly up to 45.8 µM; activity change, negative = inhibition: at the top concentration. The gist of the method: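 A 3D layer of primary human omental fibroblasts, mesothelial cells, fibronectin and collagen I, grown 48 hr, received SKOV3ip1-GFP cells in serum-free medium plus compounds at 0.36-46 umol/L. After 2 hr RT and 16 hr 37 C, fixed adherent GFP cells were counted; normalized to DMSO and tomatine.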
With `Cc1nc(SCc2ccc(Cl)cc2)c(C#N)c(C)c1Cl`, the “activity change, negative = inhibition” value was inactive: -13.7%. Take `CCOc1cc2[nH]c(=O)n(CCCC(=O)N3CCN(c4cccc(Cl)c4)CC3)c(=O)c2cc1OCC`: the “activity change, negative = inhibition” value is inactive: -7.63%. Take `CC(C)CC(=O)N[C@H](C(=O)N[C@H](C(=O)N[C@@H](CC(C)C)[C@@H](O)CC(=O)N[C@@H](C)C(=O)N[C@@H](CC(C)C)[C@@H](O)CC(=O)O)C(C)C)C(C)C` (Isovaleryl-VV[Sta]A[Sta]-OH): the “activity change, negative = inhibition” value is inactive: -13.3%. As to `CCOc1cc(C(=O)Nc2ccc(S(=O)(=O)Nc3cc(OC)nc(OC)n3)cc2)cc(OCC)c1OCC`, the compound was classed as inactive. As to `COC(=O)c1ccc(Cn2c(SCC(=O)N(C)c3ccccc3)nc3ccccc32)cc1`, the “activity change, negative = inhibition” value is inactive: 6.65%.

Consider `CCCCc1ccc(NC(=O)c2ccc3c(c2)CCN3S(=O)(=O)c2ccccc2)cc1`, for which the “activity change, negative = inhibition” value is inactive: 10.2%. Regarding `Cc1ccc(C)c(OC(=O)CSc2nnc(-c3ccc4c(c3)OCO4)o2)c1`, the “activity change, negative = inhibition” value is inactive: 4.87%. As for `Cc1ccc2cccc(NC(=O)c3ccc(-c4cccc(Cl)c4)o3)c2n1`, the “activity change, negative = inhibition” value is inactive: 3.66%. On the same count and under the same terms, the figure for `CC(C)C(NS(=O)(=O)c1ccc2c(c1)oc(=O)n2C)C(=O)NCCc1ccc(Cl)cc1` (centres undefined) is inactive: 2.51%. In the case of `Cc1ccc(NC(=O)Cn2c(=O)oc3cc(S(=O)(=O)N4CCCCCC4)ccc32)cc1Cl`, the “activity change, negative = inhibition” value is inactive: -5.2%. On the same count and under the same terms, for `Cc1ccc(NC(=O)c2nc(S(C)(=O)=O)ncc2N(Cc2ccco2)Cc2ccco2)cc1C` the value was inactive: -6.26%.

In the case of `CN(Cc1ccco1)S(=O)(=O)c1nnc(NC(=O)c2cccc(Cl)c2)s1`, the call was inactive. Regarding `CCCN(CCC)C(=O)c1cc2c(=O)n3cccc(C)c3nc2n1C`, the compound was called inactive.

`NS(=O)(=O)c1ccc2nc(NC(=O)COc3ccccc3)sc2c1`: the “activity change, negative = inhibition” value was inactive: -4.84%. Take `COc1ccc(CCC(=O)NCCc2csc(-c3ccc(Cl)cc3)n2)cc1`: the “activity change, negative = inhibition” value is inactive: 1.64%. The same measure, in the same setting: the figure for `COCCNC(=O)CSc1nc(-c2ccccc2C)nc2c1c(=O)n(C)c(=O)n2C` is inactive: 0.615%. With `Cc1ccc(-c2nnc(Nc3ccc(S(N)(=O)=O)cc3)c3ccccc23)cc1S(=O)(=O)N1CCCCC1`, the compound was called inactive. In the case of `Cc1ccc(NC(=O)c2c(C)oc3ccc(O)c(CN4CCCCC4)c23)c(C)c1`, the “activity change, negative = inhibition” value is inactive: 0.437%. The same measure, in the same setting: the figure for `O=C(O)C[C@H](O)C[C@H](O)C=Cc1c(C2CC2)nc2ccccc2c1-c1ccc(F)cc1` is inactive: -18.7%.

`CN(C)c1ccc(C(CNC(=O)c2c(F)cccc2Cl)N2CCOCC2)cc1` (centres undefined): the outcome was inactive. As for `CC(C)(Oc1ccc(Cl)cc1)C(=O)Nc1nc2ccc(S(C)(=O)=O)cc2s1`, the “activity change, negative = inhibition” value was inactive: -0.732%.

As to `CCC(=O)N1CCc2cc(Br)cc(S(=O)(=O)CCC(=O)N(CC)Cc3ccccc3)c21`, the “activity change, negative = inhibition” value is inactive: 9.03%. Turning to `Cc1ccc(NC(=O)CN2C(=O)C3(SCC(=O)N3c3ccc(F)c(F)c3)c3ccccc32)c(C)c1` (centres undefined), the call was inactive. On to `Nc1ccn([C@@H]2O[C@H](CO)[C@H](O)C2(F)F)c(=O)n1`, for which the “activity change, negative = inhibition” value is inactive: -24.7%. As to `CCOCCCNC(=O)C(c1ccc(Cl)cc1)N(Cc1cccs1)C(=O)c1ccc(NC(C)=O)cc1` (centres undefined), the “activity change, negative = inhibition” value was inactive: 11.8%. Take `CN1C(=O)C2(SCC(=O)N2c2ccc(F)cc2)c2ccccc21` (centres undefined): the result was inactive. As for `COc1cc(OC)cc(C(=O)Nc2ccc3oc(-c4cccc5c(Br)cccc45)nc3c2)c1`, the result was inactive. `CCOc1ccc(OCC)c(NS(=O)(=O)c2cc(-c3onc(C)c3C)ccc2OC)c1`: the “activity change, negative = inhibition” value was inactive: -2.21%. As for `COc1ccc(Cl)cc1NC(=O)NCC1CCN(Cc2ccccc2F)CC1`, the “activity change, negative = inhibition” value was inactive: 10.6%. Consider `COc1ccc(-n2c(=O)c3c4c(sc3n3c(SCCC(C)C)nnc23)COC(C(C)C)C4)cc1` (centres undefined), for which the compound was classed as inactive. For `CC(=O)N1CCc2cc(CNS(=O)(=O)c3ccc(Cl)s3)ccc21`, the “activity change, negative = inhibition” value was inactive: -13.1%. `COc1ccc(N2CCN(C(=O)c3cc(S(=O)(=O)N4CCC(C)CC4)cn3C)CC2)cc1`: the outcome was inactive. In the case of `CCN1CCN(CCCNC(=O)c2ccc3nc(Cc4ccccc4)oc3c2)CC1`, the “activity change, negative = inhibition” value is inactive: 11.8%. For the compound `Cc1cccc(NC(=O)CCNS(=O)(=O)c2cccc3nsnc23)c1C`, the compound was classed as inactive. With `COc1ccc(N(CC(=O)N2CCN(c3ccccc3F)CC2)S(=O)(=O)c2c(C)n[nH]c2C)cc1`, the “activity change, negative = inhibition” value was inactive: 4.35%. As for `CCOc1ccccc1N(CC)C(=O)c1noc2c1COc1ccc(C)cc1-2`, the compound was called inactive.

`O=C(c1ccc(F)cc1)n1nc(-c2ccccc2)nc1NCc1ccco1`: the compound was classed as inactive. On to `O=C(NC1CCCCC1)c1ccc2c(c1)N(Cc1ccc(Cl)cc1)C(=O)c1ccccc1S2=O` (centres undefined), for which the “activity change, negative = inhibition” value is inactive: 11.3%.

As to `CCn1cc(C(=O)NCCc2ccc(Cl)cc2)c(=O)c2cc(S(=O)(=O)N3CCC(C)CC3)ccc21`, the call was inactive.

`Cc1cccc(N2CCN(c3nc4ccc(C)cc4n4cnnc34)CC2C)c1` (centres undefined): the “activity change, negative = inhibition” value is inactive: -36%. On to `O=C(NCC(c1ccc2c(c1)OCO2)N1CCOCC1)c1c(F)cccc1F` (centres undefined), for which the “activity change, negative = inhibition” value is inactive: -4.34%.

Regarding `COc1ccc(-n2ccnc(NCc3ccc(C)cc3)c2=O)cc1OC`, the compound was classed as inactive. For `CCN(C(=O)C1CCN(c2ncnc3c2nc2n3CCCCC2)CC1)c1cccc(Cl)c1`, the “activity change, negative = inhibition” value was inactive: 0.511%. Regarding `O=C(c1ccccc1)N(Cc1ccco1)Cc1cccs1`, the compound was classed as inactive. As for `COc1ccc(NC(=O)/C=C\C(=O)N(c2ccc(C(C)C)cc2)C(C(=O)NCc2ccco2)c2ccc(F)cc2)cc1` (centres undefined), the “activity change, negative = inhibition” value was inactive: -2.59%. For `Cc1cccc(C(=O)Nc2ccc(C(=O)OCc3cc(=O)n4nc(CC(C)C)sc4n3)cc2)c1`, the call was inactive. Turning to `Cc1nc(N)ncc1-c1nc(N2CCOCC2)c2sc(C(C)(C)O)cc2n1`, the “activity change, negative = inhibition” value was inactive: -28%. On the same count and under the same terms, for `CC1(C)CCC[C@@]2(C)[C@@H]1CC[C@@]1(C)OC(=O)C[C@H]21` the value was inactive: -7.74%. In the case of `CCn1c(C)c(C)c2cc(C(=O)NCc3cccc(C)c3)ccc21`, the compound was classed as inactive. Take `Cc1ccc(C)c(Cn2c(=O)cc(C)c3c(C)nn(C)c32)c1`: the “activity change, negative = inhibition” value is inactive: -10.7%. Turning to `COc1ccccc1NC(=O)c1sc2nc(C)c(C(=O)Nc3ccc(C)cc3C)c(-c3ccc(C)o3)c2c1N`, the “activity change, negative = inhibition” value is inactive: 8.21%. On the same count and under the same terms, for `Cc1ccc(-n2ncc3c(N4CCN(C)CC4)ncnc32)cc1C` the value was inactive: 6.87%. Turning to `COc1ccc(OCC(=O)N2CCN(C(=O)c3cccc(OC)c3)CC2)cc1`, the outcome was inactive.

In the case of `CCc1ccccc1NC(=O)CCS(=O)(=O)c1cccc2nonc12`, the compound was called inactive. Still for that read-out and setting: the entry for `COc1cccc(CNC(=O)CCc2c(C)c3cc4c(C)coc4c(C)c3oc2=O)c1` is “inactive”. In the case of `Cc1cc(C)cc(NC(=O)CCc2c(C)nc3c4cccnc4nn3c2C)c1`, the “activity change, negative = inhibition” value was inactive: 10.6%. Take `CCOC(=O)Cn1c(=O)n(C2CCCCC2)c2nc(-c3cccc(OC)c3)nc(C(N)=O)c21`: the compound was classed as inactive. Same read-out and setting: the entry for `Cc1cccc(C(=O)NCC(=O)OCc2cc(=O)n3nc(C4CC4)sc3n2)c1` is “inactive”. On to `Cc1cccc(NC(=O)Cc2csc(COc3cccc(C)c3)n2)c1`, for which the “activity change, negative = inhibition” value is inactive: 5.51%.
